We go through 84 variants from the RNAGym collection of RNA variant scans (doi:10.1073/pnas.2313332121).

Variants at the background level are over-represented here.

Sequences and labels used below:
B1: TPR 5TU (parent)
chain: GGAUCUUCUCGAUCUAACAAAAAAGACAAAUCUGCCACAAAGCUUGAGAGCAUCUUCGGAUGCAGAGGCGGCAGCCUUCGGUGGCGCGAUAGCGCCAACGUUCUCAACUAUGACACGCAAAACGCGUGCUCCGUUGAAUGGAGUUUAUCAUG

This data set covers variants of B1. As to the kind of experiment: polymerase ribozyme fitness, log enrichment relative to wild type (log ratio); higher = more active; in vitro selection for triplet polymerase activity. The gist of the method:
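PCR was used to build mutant libraries for each subunit of a heterodimeric triplet polymerase ribozyme, which were then transcribed. A single in vitro selection round, in triplicate, used a frozen incubation at −7 °C and recovered extended constructs by gel excision, streptavidin beads and RT-PCR. Fitness is the logarithm of genotype enrichment relative to wild-type enrichment, averaged over replicates with inverse-variance weights. The logarithm is base 2, and after Illumina sequencing only genotypes with ≥10 input reads and ≥1 read per output were kept.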
For A12U G83C C96U A107C U109A C116A A142C, the “polymerase ribozyme fitness (log ratio)” value was not above -4.2.

In the case of A12G U56G C96U A120U, the “polymerase ribozyme fitness (log ratio)” value is -0.669.

Take A12U A22C G88C A122U G143C G152C: the “polymerase ribozyme fitness (log ratio)” value was not above -4.2.

On to A12U A20C A47C C72U C85G G117A A150G, for which the “polymerase ribozyme fitness (log ratio)” value is not above -4.2.

For A12U A24C G46A A52G G141U A147G, the “polymerase ribozyme fitness (log ratio)” value is not above -4.2.

As for A12U G80U G84C A97G U134C, the “polymerase ribozyme fitness (log ratio)” value is not above -4.2.

For the variant A12G C43U G59U U82A G117A, the “polymerase ribozyme fitness (log ratio)” value was not above -4.2.

On to A12G A40G C54U G59C A60C G94U C96U C99U A142U, for which the “polymerase ribozyme fitness (log ratio)” value is not above -4.2.

Consider A12G A73U C96A U109A C116U, for which the “polymerase ribozyme fitness (log ratio)” value was -2.66.

A12U C18G C63G G83U U111G: the “polymerase ribozyme fitness (log ratio)” value was not above -4.2.

Take A12G A21C A23G C76G C116G G133A: the “polymerase ribozyme fitness (log ratio)” value is not above -4.2.

In the case of A12G C54U U56G G59C C63A C72G, the “polymerase ribozyme fitness (log ratio)” value is not above -4.2.

For the variant A12G C54U G86U C105U G143A, the “polymerase ribozyme fitness (log ratio)” value is -2.5.

In the case of A12G A16U A60U C72G C95U, the “polymerase ribozyme fitness (log ratio)” value was not above -4.2.

On to A12C U139A, for which the “polymerase ribozyme fitness (log ratio)” value is not above -4.2.

Turning to U13A A16G A28G G48A C51U U135A U148C, the “polymerase ribozyme fitness (log ratio)” value is not above -4.2.

In the case of A12G A30C C85U, the “polymerase ribozyme fitness (log ratio)” value was not above -4.2.

As to A12G A49C C93U U134A U145G, the “polymerase ribozyme fitness (log ratio)” value is not above -4.2.

In the case of A12G C14A A30C A39U A73U U77A C85A C125G, the “polymerase ribozyme fitness (log ratio)” value was not above -4.2.

In the case of A12C U13C A26C C27G G70A C96G, the “polymerase ribozyme fitness (log ratio)” value was not above -4.2.

For the variant A12G C69A C96U A121C U127G A147U, the “polymerase ribozyme fitness (log ratio)” value was -4.02.

With A12C U44A U56G G83U A89U C95A A98C C103G A107G, the “polymerase ribozyme fitness (log ratio)” value is not above -4.2.

Turning to A12G G59A A73G A91G, the “polymerase ribozyme fitness (log ratio)” value was -2.71.

In the case of A12G C99G, the “polymerase ribozyme fitness (log ratio)” value was -0.551.

A12G C36A C69U C85G A89C A113U: the “polymerase ribozyme fitness (log ratio)” value is not above -4.2.

With A12G G80A C118U A119C A120G G143U, the “polymerase ribozyme fitness (log ratio)” value is -3.12.

As for A12U U45A G50A C69G C93U, the “polymerase ribozyme fitness (log ratio)” value is not above -4.2.

As for A12U A89U G94U C108G C118U A120C A122C A137C, the “polymerase ribozyme fitness (log ratio)” value was not above -4.2.

With U13A A39U C54G C79U G81U G94U U139C G140U, the “polymerase ribozyme fitness (log ratio)” value was not above -4.2.

On to A12U C14G C87G A97G G143U, for which the “polymerase ribozyme fitness (log ratio)” value was not above -4.2.

Regarding A12G A47C A52C C85A C103U A110G, the “polymerase ribozyme fitness (log ratio)” value was not above -4.2.

For U13A A24U G58C G88U C105U U148A A150C, the “polymerase ribozyme fitness (log ratio)” value is not above -4.2.

Take A12G C18U A24U A28G G50A U53C C79A G80C G94A C116A A138C: the “polymerase ribozyme fitness (log ratio)” value was not above -4.2.

U13A A17U C57G A91C C93A G94A A115G G124U G126C: the “polymerase ribozyme fitness (log ratio)” value was not above -4.2.

As for A12U A17U A39C A41C U111G, the “polymerase ribozyme fitness (log ratio)” value is not above -4.2.

Turning to U13A A17G A49C A107G, the “polymerase ribozyme fitness (log ratio)” value is not above -4.2.

On to U13A A21C A40C C43U G67A G100C A142U A147G, for which the “polymerase ribozyme fitness (log ratio)” value is not above -4.2.

For A12U C43U C63U U90C C105G G140A, the “polymerase ribozyme fitness (log ratio)” value is not above -4.2.

As to A12G G46C A60C C85G, the “polymerase ribozyme fitness (log ratio)” value was not above -4.2.

Turning to A12U A19G C57U A60U C87A G124U U134A A137U, the “polymerase ribozyme fitness (log ratio)” value was not above -4.2.

As for A12U C36A A64U G86A U111G, the “polymerase ribozyme fitness (log ratio)” value is not above -4.2.

A12U C54G G80U C87U C105G U145A: the “polymerase ribozyme fitness (log ratio)” value is not above -4.2.

For A12U A22U C27U A40G C69A U78A G94A A115C A119U G124A, the “polymerase ribozyme fitness (log ratio)” value was not above -4.2.

With A12G C96G U102C A121G G141A A150G, the “polymerase ribozyme fitness (log ratio)” value is not above -4.2.

Take A12G G88C: the “polymerase ribozyme fitness (log ratio)” value was -3.71.

For A12U A23G G42C A60G G84U A107G U109G, the “polymerase ribozyme fitness (log ratio)” value is not above -4.2.

As to U13A A20U C35A G50A G83C C118G A119U C132U, the “polymerase ribozyme fitness (log ratio)” value was not above -4.2.

A12G C27U G46U C57A C85G A122C: the “polymerase ribozyme fitness (log ratio)” value was -3.63.

On to A12U U55A G141A, for which the “polymerase ribozyme fitness (log ratio)” value was -1.32.

Consider A12U A21U U55A A66U C75G C87A G128U G140A, for which the “polymerase ribozyme fitness (log ratio)” value is not above -4.2.

As for A12U A16C A28G A40C C93U C99A C125U, the “polymerase ribozyme fitness (log ratio)” value is not above -4.2.

In the case of A12G U144G, the “polymerase ribozyme fitness (log ratio)” value was found to be 0.592.

For the variant U13A A23G C27U A28C C54U C85U C93U A115C C116G A121G A150C, the “polymerase ribozyme fitness (log ratio)” value is -3.82.

Regarding A12G A24U C36G U78G U102G, the “polymerase ribozyme fitness (log ratio)” value is not above -4.2.

Consider A12U C36G G67A G81U G83C, for which the “polymerase ribozyme fitness (log ratio)” value is not above -4.2.

On to A12G G92C G133U, for which the “polymerase ribozyme fitness (log ratio)” value was -3.59.

Consider A12G C51G U56A C85U C96G, for which the “polymerase ribozyme fitness (log ratio)” value was not above -4.2.

Turning to A12G C36A U55G G94A G141C U148G, the “polymerase ribozyme fitness (log ratio)” value is not above -4.2.

Take A12G A40G U44A U45A C93G A120U G141U: the “polymerase ribozyme fitness (log ratio)” value was not above -4.2.

In the case of A12G G46A A49C G58A G88C C95A C108G, the “polymerase ribozyme fitness (log ratio)” value is not above -4.2.

A12U A22U U45A U53A U77C C125A G141C: the “polymerase ribozyme fitness (log ratio)” value was not above -4.2.

For A12G G70A C118U, the “polymerase ribozyme fitness (log ratio)” value is -3.56.

Regarding A12G C72U G88U A120U G141U, the “polymerase ribozyme fitness (log ratio)” value was not above -4.2.

A12G C14U G92U U111C A138U: the “polymerase ribozyme fitness (log ratio)” value is not above -4.2.

For A12G G92A U127G C132U G136U U146C, the “polymerase ribozyme fitness (log ratio)” value is not above -4.2.

In the case of A12G A49C A60C G88U G126U, the “polymerase ribozyme fitness (log ratio)” value is not above -4.2.

For the variant A12U A22U A28U C35A G141A, the “polymerase ribozyme fitness (log ratio)” value is not above -4.2.

As for A12G A21U C32U A49C A97C A98G A121G, the “polymerase ribozyme fitness (log ratio)” value was not above -4.2.

Consider A12G A24U A73G C75G C85U G141C, for which the “polymerase ribozyme fitness (log ratio)” value is not above -4.2.

In the case of A12C U33A G42U A60G C93G, the “polymerase ribozyme fitness (log ratio)” value was not above -4.2.

For the variant A12U C43A C54U U55A G94U A98C A120G, the “polymerase ribozyme fitness (log ratio)” value was not above -4.2.

With A12G U55A G70A C76G C85G G88A C149G, the “polymerase ribozyme fitness (log ratio)” value was not above -4.2.

As for A12U C51U C54U C87G A138G, the “polymerase ribozyme fitness (log ratio)” value was not above -4.2.

Turning to A12G C57A G59C C79U C116G G136A G141C A150G U151A, the “polymerase ribozyme fitness (log ratio)” value is not above -4.2.

As to A12G C85A C108U, the “polymerase ribozyme fitness (log ratio)” value was not above -4.2.

With A12G U77A C96A A98G, the “polymerase ribozyme fitness (log ratio)” value is not above -4.2.

Turning to A12G G25A A26G A40U C57U C76A C93U C131A, the “polymerase ribozyme fitness (log ratio)” value is not above -4.2.

As to A12U A30G A47G U61A C69G U78G U145G, the “polymerase ribozyme fitness (log ratio)” value was not above -4.2.

With A12G C18G A66U C69G C99A, the “polymerase ribozyme fitness (log ratio)” value is not above -4.2.

For A12G U15G C69A C75U A106G A120G, the “polymerase ribozyme fitness (log ratio)” value is -2.52.

On to A12U C35U A52G C85A A91U C96A U109G, for which the “polymerase ribozyme fitness (log ratio)” value is not above -4.2.

As to A12G C57A A120G U134G C149A, the “polymerase ribozyme fitness (log ratio)” value is not above -4.2.

In the case of A12U U15G C27U G59U G86U U135A A147G, the “polymerase ribozyme fitness (log ratio)” value is not above -4.2.

For A12U A16U C27A C76U G92U C129A, the “polymerase ribozyme fitness (log ratio)” value is not above -4.2.
